Laboratory results as given in publication PMC5700166.
This is a selection; strong and weak results do not stand in their true shares. The list includes weakly bound sequences.

Biological target: T1, GST-Ap-NF-kB RHD (UniProt A0A913YAJ5)
T1 sequence: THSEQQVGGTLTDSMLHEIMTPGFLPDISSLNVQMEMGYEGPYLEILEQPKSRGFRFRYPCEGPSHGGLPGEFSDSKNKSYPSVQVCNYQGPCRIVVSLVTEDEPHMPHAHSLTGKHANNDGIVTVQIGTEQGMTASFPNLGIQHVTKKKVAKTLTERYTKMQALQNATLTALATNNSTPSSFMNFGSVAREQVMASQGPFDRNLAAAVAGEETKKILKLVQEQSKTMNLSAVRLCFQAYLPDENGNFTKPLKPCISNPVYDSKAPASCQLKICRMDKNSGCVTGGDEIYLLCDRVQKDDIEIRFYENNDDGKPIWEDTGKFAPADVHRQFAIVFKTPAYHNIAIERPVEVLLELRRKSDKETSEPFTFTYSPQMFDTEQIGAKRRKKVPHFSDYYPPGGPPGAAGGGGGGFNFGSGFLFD
Assay: protein-binding microarray (PBM)
Conditions: PBM: ~300 nM protein, 6 mM HEPES pH 7.8, 80 mM KCl, 0.5 mM EDTA, 0.5 mM EGTA, 6% glycerol, 35 ng/ul poly-dIdC, 1% milk, 1 h, room temperature; Ap Aiptasia and Nv Nematostella (sea anemones) / Co Capsaspora / Aq Amphimedon (sponge) / Dm Drosophila / Hu human; RHD is the Rel homology domain; high values mean tight binding; most listed sequences are background and not binding sites; double strand, one strand shown

With “CCGATTAACATCAGGGACAAAAATGATGTTAATCGGGTCTTGATTCGCTTGACGCTGCTG” as the sequence, how does the binding signal read?
The binding signal was 2 z-score.

How did the binding signal turn out when “CCGATTAACATCACCTATTCCCCTGATGTTAATCGGGTCTTGATTCGCTTGACGCTGCTG” was run?
Its binding signal is 5.73 z-score.

“CCGATTAACATCAGTTGGGAAAATGATGTTAATCGGGTCTTGATTCGCTTGACGCTGCTG” was tested. Which binding signal did it give?
Its binding signal is 0.681 z-score.

With “CCGATTAACATCAGGGAGTGCCCTGATGTTAATCGGGTCTTGATTCGCTTGACGCTGCTG” as the sequence, how does the binding signal read?
The binding signal was 2.83 z-score.

How did the binding signal turn out when “CCGATTAACATCAGTGGGAAAAATGATGTTAATCGGGTCTTGATTCGCTTGACGCTGCTG” was run?
The binding signal was 2.21 z-score.

For “CCGATTAACATCAAAGCATTCCCTGATGTTAATCGGGTCTTGATTCGCTTGACGCTGCTG”, which binding signal is on record?
The binding signal was 2.32 z-score.

With “CCGATTAACATCAGGGAAATTAATGATGTTAATCGGGTCTTGATTCGCTTGACGCTGCTG” as the sequence, how does the binding signal read?
Its binding signal is 3.37 z-score.

Which binding signal does the source give for “CCGATTAACATCAGAATTCCCGCTGATGTTAATCGGGTCTTGATTCGCTTGACGCTGCTG” here?
Its binding signal is 3.59 z-score.

With “CCGATTAACATCAGGCTTTCCCCTGATGTTAATCGGGTCTTGATTCGCTTGACGCTGCTG” as the sequence, how does the binding signal read?
Its binding signal is 6.49 z-score.

For “CCGATTAACATCAAGGAATCCCCTGATGTTAATCGGGTCTTGATTCGCTTGACGCTGCTG”, which binding signal is on record?
Its binding signal is 9.79 z-score.

For “CCGATTAACATCAGGACATACCCTGATGTTAATCGGGTCTTGATTCGCTTGACGCTGCTG”, which binding signal is on record?
The binding signal was 1.92 z-score.

With “CCGATTAACATCAGGACCTCCCCTGATGTTAATCGGGTCTTGATTCGCTTGACGCTGCTG” as the sequence, how does the binding signal read?
The binding signal was 5.62 z-score.

How did the binding signal turn out when “CCGATTAACATCAGGGGGTACAATGATGTTAATCGGGTCTTGATTCGCTTGACGCTGCTG” was run?
The binding signal was 4.98 z-score.

How did the binding signal turn out when “CCGATTAACATCAACAGGGAAAATGATGTTAATCGGGTCTTGATTCGCTTGACGCTGCTG” was run?
The binding signal was 3.23 z-score.
